# PubChem BioAssay AID504332 (National Center for Advancing Translational Sciences (NCATS), 2011)
# Screen size: about 350,000 compounds; about 31,000 (8.9%) were called active. The inconclusive results got no clear call from the source; some entries with a clear call stand among them for comparison. The call rests on the fitted dose curve; in most records, active means well fitted inhibition curve with a large enough effect; inconclusive means small, poorly fitted or top-dose-only effect; inactive means no such curve, though single readings can be large or run the other way. Potencies beside an inconclusive call are fits to weak or partial responses and may not hold up.
# Target: Histone-lysine N-methyltransferase EHMT2 (Homo sapiens) (UniProt Q96KQ7)
# Experiment: qHTS Assay for Inhibitors of Histone Lysine Methyltransferase G9a; further: nearly all actives have a fitted effect of over 75% in size
# Conditions: G9a H3K9 monomethylation, AlphaScreen, 2 h; activity, negative = inhibition: at 59 µM (top of the series) unless noted
# Summary of the method: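 G9a (20 nM) was preincubated 15 min with compound, then reacted 2 h at room temperature with 500 nM biotin-H3K9 peptide and 20 µM SAM. Monomethyl-H3K9 detected by AlphaScreen using anti-H3K9me1 antibody.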
# On the % scale 0 is the no-effect control and ±100 the full control effect; potency means the concentration at half of the fitted maximal effect; tags describe the fitted curve by direction and shape.
# Chain of UniProt Q96KQ7 (Q96KQ7 whole entry, looked up): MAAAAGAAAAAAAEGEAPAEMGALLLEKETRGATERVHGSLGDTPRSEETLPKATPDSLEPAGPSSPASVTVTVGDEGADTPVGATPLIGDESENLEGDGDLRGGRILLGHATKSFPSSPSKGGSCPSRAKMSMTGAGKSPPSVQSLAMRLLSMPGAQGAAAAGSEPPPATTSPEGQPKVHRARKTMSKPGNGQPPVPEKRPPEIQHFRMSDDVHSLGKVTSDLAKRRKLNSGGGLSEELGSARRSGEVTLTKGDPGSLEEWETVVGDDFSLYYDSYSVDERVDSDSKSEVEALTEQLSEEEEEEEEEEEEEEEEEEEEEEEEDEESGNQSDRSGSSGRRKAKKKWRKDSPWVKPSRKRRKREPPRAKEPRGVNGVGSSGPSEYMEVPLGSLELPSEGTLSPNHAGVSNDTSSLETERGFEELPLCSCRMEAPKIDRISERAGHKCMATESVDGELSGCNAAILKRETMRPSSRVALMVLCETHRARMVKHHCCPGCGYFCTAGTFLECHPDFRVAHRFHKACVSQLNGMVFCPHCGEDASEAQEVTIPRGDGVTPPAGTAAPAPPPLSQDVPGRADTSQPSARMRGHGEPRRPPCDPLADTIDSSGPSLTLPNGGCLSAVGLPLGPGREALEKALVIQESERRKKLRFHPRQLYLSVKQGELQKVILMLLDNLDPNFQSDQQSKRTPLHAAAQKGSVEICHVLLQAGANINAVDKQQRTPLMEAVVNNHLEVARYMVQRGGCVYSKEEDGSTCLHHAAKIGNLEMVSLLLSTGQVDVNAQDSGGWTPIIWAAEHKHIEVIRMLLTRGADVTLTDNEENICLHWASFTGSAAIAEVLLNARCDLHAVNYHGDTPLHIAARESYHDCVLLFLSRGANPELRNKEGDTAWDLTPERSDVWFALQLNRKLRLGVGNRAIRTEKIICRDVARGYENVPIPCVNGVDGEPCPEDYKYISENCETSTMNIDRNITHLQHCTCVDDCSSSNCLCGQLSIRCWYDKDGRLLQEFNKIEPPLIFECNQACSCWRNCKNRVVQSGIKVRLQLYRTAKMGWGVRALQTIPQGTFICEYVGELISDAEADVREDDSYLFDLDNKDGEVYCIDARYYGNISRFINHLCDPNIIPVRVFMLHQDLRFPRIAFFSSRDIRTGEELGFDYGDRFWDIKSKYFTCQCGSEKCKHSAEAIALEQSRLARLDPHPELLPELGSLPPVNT
Compound,"activity, negative = inhibition",Potency
Cc1cccc(NC(=O)COc2coc(CN3CCc4ccccc4C3)cc2=O)c1,inactive: -35.1% [at 102 µM],–
CC(=O)c1nc2ccccc2n1S(=O)(=O)c1ccc(C)cc1,–,"inconclusive: 50.1 µM [inhibitor, partial curve, poor fit]"
N#CC1=C(N)NC(=S)C(C(N)=O)C1c1ccc(Cl)cc1Cl (centres undefined),–,"inconclusive: 12.6 µM [inhibitor, partial curve, poor fit]"
CC1=C(c2ccc(C(C)C)cc2)S(=O)(=O)NC1=NCc1ccccc1Br,inactive: -26.2%,–
COc1ccc(-c2cn(-c3ccc(C)c(C)c3)c(=S)[nH]2)cc1OC,–,active: 8.91 µM
CCOC(=O)C1CCN(c2cc(C)nc3cc(-c4cccc(F)c4)nn23)CC1,inactive: -42.1% [at 12.7 µM],–
CCOc1cc2[nH]c(=O)n(CCCC(=O)N3CCN(c4ccc(OC)cc4)CC3)c(=O)c2cc1OCC,inactive: -33.9%,–
CCCCn1c(N)c(N(CCOC)C(=O)COC(=O)COc2cc(C)c(Cl)cc2C(C)C)c(=O)[nH]c1=O,–,"inconclusive: 79.4 µM [inhibitor, single point]"
Cc1cc(OC(=O)C2CC2)c([N+](=O)[O-])c(=O)[nH]1,–,"inconclusive: 89.1 µM [inhibitor, partial curve, poor fit]"
CC(=O)c1ccccc1NCC(=O)Nc1ccc(C)cc1,–,"inconclusive: 50.1 µM [inhibitor, partial curve, poor fit]"
CCOC(=O)c1ccccc1NC1CC(=O)N(c2ccccc2C)C1=O (centres undefined),–,"inconclusive: 3.16 µM [inhibitor, partial curve, poor fit]"
Cn1c(=O)c2c(nc(NCC3CCCC(CN)C3)n2Cc2ccc(Cl)cc2Cl)n(C)c1=O (centres undefined),inactive: -1.16% [at 102 µM],–
CCC(C)(C)NC(=O)C(c1cccn1C)N(Cc1ccc(C)cc1)C(=O)Cn1nnc2ccccc21 (centres undefined),–,"inconclusive: 1.58 µM [inhibitor, single point]"
CNS(=O)(=O)c1ccc2c3c(cccc13)C(=O)N2C,inactive: 39.7% [at 102 µM],–
CC(C)Oc1ccc(C(CCN)C2CCCCC2)cc1 (centres undefined),–,active: 15.8 µM
CC(C)C(=O)N1CCN(c2ccc(NC(=O)c3ccc4c(c3)OCCO4)cc2Cl)CC1,–,"inconclusive: 79.4 µM [inhibitor, single point]"
COC(=O)NC1CCC(CC2CCC(NC(=O)OC)CC2)CC1 (centres undefined),–,"inconclusive: 35.5 µM [inhibitor, partial curve, poor fit]"
Cc1ccc(OCC(=O)N/N=C/c2cccnc2)cc1C,inactive: -1.69% [at 12.7 µM],–
Cc1[nH]c2ccc(C(=O)NCCCN3CCCCCC3)cc2c1C,–,"inconclusive: 79.4 µM [inhibitor, single point]"
